# Assay results published in the supplement of paper PMC10037445.
# Over roughly 2,900 compounds, “NF-kB SEAP reporter activity, fold change vs agonist alone” has its median near 0.99; the highest 2% begin near 2.6. Some of the results follow.
# Key:
# RAW-Dual [1] = assay: NF-kB SEAP reporter activity, fold change vs agonist alone; higher = enhanced NF-kB activity; settings: library stock concentration (final ~1000-fold dilution): 10 mM
# In short: (§1)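 Supernatant from RAW-Dual macrophages was read after 20 hours for IRF by QuantiLuc luminescence and for NF-κB by QuantiBlue absorbance at 620 nm. The cells (50,000 cells/well in DMEM, 384-well plates, 37 °C, 5% CO2) had received 50 nL of library stock by pin tool and, 1 h later, a PRR agonist. Reporter activity is expressed relative to agonist-alone wells as fold change, and wells were flagged cytotoxic if IncuCyte confluency was under 70% of agonist controls in both mask sets.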
# RAW-Dual [2] = assay: NF-kB SEAP reporter activity, fold change vs agonist alone; cytotoxicity flag (confluency mask): not cytotoxic; higher = enhanced NF-kB activity
# In short: as §1
# RAW-Dual [3] = assay: NF-kB SEAP reporter activity, fold change vs agonist alone; cytotoxicity flag (confluency mask): cytotoxic (confluency <70% of control); higher = enhanced NF-kB activity
# In short: as §1
# [4] = cytotoxicity flag (confluency mask): not cytotoxic, agonist: Imiquimod (TLR7) […]
# [5] = cytotoxicity flag (confluency mask): not cytotoxic, agonist: MPLA (TLR4) […]
# [6] = agonist: ODN 1826 (TLR9) 0.5 ug/mL
# [7] = agonist: Pam2CSK4 (TLR2/6) 0.1 ug/mL
# [8] = agonist: Pam3CSK4 (TLR2/1) 0.1 ug/mL
# [9] = cytotoxicity flag (confluency mask): cytotoxic (confluency <70% of control), agonist: Imiquimod (TLR7) […]
# [10] = cytotoxicity flag (confluency mask): cytotoxic (confluency <70% of control), agonist: MPLA (TLR4) […]
structure (smiles),measurement,setting,value
CC(C)n1nc(-c2ccc(NC(=O)Nc3cc(C(F)(F)F)ccc3F)cc2)c2c(N)ncnc21,NF-kB SEAP reporter activity,RAW-Dual [1]; [4],0.149
same,NF-kB SEAP reporter activity,RAW-Dual [1]; [5],0.261
CC(C)n1nc(-c2ccc(NC(=O)Nc3cc(C(F)(F)F)ccc3F)cc2)c2c(N)ncnc21 (library stock concentration (final ~1000-fold dilution): 10 mM),NF-kB SEAP reporter activity,RAW-Dual [2]; agonist: LPS (TLR4) 0.1 ug/mL,0.398
same,NF-kB SEAP reporter activity,RAW-Dual [2]; [6],0.196
same,NF-kB SEAP reporter activity,RAW-Dual [2]; [7],0.0706
same,NF-kB SEAP reporter activity,RAW-Dual [2]; [8],0.216
N#Cc1c(NC(=O)c2cccc3ccccc23)sc2c1CCCC2 (library stock concentration (final ~1000-fold dilution): 10 mM),NF-kB SEAP reporter activity,RAW-Dual [2]; agonist: LPS (TLR4) 0.1 ug/mL,2.36
same,NF-kB SEAP reporter activity,RAW-Dual [2]; [6],2.18
same,NF-kB SEAP reporter activity,RAW-Dual [2]; [7],1.25
same,NF-kB SEAP reporter activity,RAW-Dual [2]; [8],1.4
N#Cc1c(NC(=O)c2cccc3ccccc23)sc2c1CCCC2,NF-kB SEAP reporter activity,RAW-Dual [1]; [4],1.46
same,NF-kB SEAP reporter activity,RAW-Dual [1]; [5],1.94
C=CC(=O)Nc1cccc(Nc2nc(Nc3ccc(OCCOC)cc3)ncc2F)c1 (library stock concentration (final ~1000-fold dilution): 10 mM),NF-kB SEAP reporter activity,RAW-Dual [2]; agonist: LPS (TLR4) 0.1 ug/mL,1.12
same,NF-kB SEAP reporter activity,RAW-Dual [2]; [6],0.8
same,NF-kB SEAP reporter activity,RAW-Dual [2]; [7],0.545
same,NF-kB SEAP reporter activity,RAW-Dual [2]; [8],0.672
C=CC(=O)Nc1cccc(Nc2nc(Nc3ccc(OCCOC)cc3)ncc2F)c1,NF-kB SEAP reporter activity,RAW-Dual [1]; [4],1.11
same,NF-kB SEAP reporter activity,RAW-Dual [1]; [5],1.69
CCC(=O)Nc1cccc(Oc2nc(Nc3ccc(N4CCN(C)CC4)cc3OC)ncc2Cl)c1 (library stock concentration (final ~1000-fold dilution): 10 mM),NF-kB SEAP reporter activity,RAW-Dual [3]; agonist: LPS (TLR4) 0.1 ug/mL,1.65
same,NF-kB SEAP reporter activity,RAW-Dual [3]; [6],0.875
same,NF-kB SEAP reporter activity,RAW-Dual [3]; [7],0.603
same,NF-kB SEAP reporter activity,RAW-Dual [3]; [8],1.02
CCC(=O)Nc1cccc(Oc2nc(Nc3ccc(N4CCN(C)CC4)cc3OC)ncc2Cl)c1,NF-kB SEAP reporter activity,RAW-Dual [1]; [9],1.1
same,NF-kB SEAP reporter activity,RAW-Dual [1]; [10],1.7
O=S(=O)(Cl)c1ccc(-c2ccccc2)cc1,NF-kB SEAP reporter activity,RAW-Dual [1]; [5],1.05
O=S(=O)(Cl)c1ccc(-c2ccccc2)cc1 (library stock concentration (final ~1000-fold dilution): 10 mM),NF-kB SEAP reporter activity,RAW-Dual [2]; agonist: LPS (TLR4) 0.1 ug/mL,1.31
same,NF-kB SEAP reporter activity,RAW-Dual [2]; [6],0.979
same,NF-kB SEAP reporter activity,RAW-Dual [2]; [7],0.82
same,NF-kB SEAP reporter activity,RAW-Dual [2]; [8],0.849
Nc1nc(Cl)nc2c1ncn2C1CC(O)C(CO)O1 (stereo not given) (library stock concentration (final ~1000-fold dilution): 10 mM),NF-kB SEAP reporter activity,RAW-Dual [3]; agonist: LPS (TLR4) 0.1 ug/mL,1.8
same,NF-kB SEAP reporter activity,RAW-Dual [3]; [6],2.13
same,NF-kB SEAP reporter activity,RAW-Dual [3]; [7],1.43
same,NF-kB SEAP reporter activity,RAW-Dual [3]; [8],1.8
Nc1nc(Cl)nc2c1ncn2C1CC(O)C(CO)O1 (stereo not given),NF-kB SEAP reporter activity,RAW-Dual [1]; [9],2.1
same,NF-kB SEAP reporter activity,RAW-Dual [1]; [10],1.55
O=C(c1ccccc1)c1ccc2n1CCC2C(=O)O (stereo not given),NF-kB SEAP reporter activity,RAW-Dual [1]; [4],0.931
same,NF-kB SEAP reporter activity,RAW-Dual [1]; [5],1.04
O=C(c1ccccc1)c1ccc2n1CCC2C(=O)O (stereo not given) (library stock concentration (final ~1000-fold dilution): 10 mM),NF-kB SEAP reporter activity,RAW-Dual [2]; agonist: LPS (TLR4) 0.1 ug/mL,0.892
same,NF-kB SEAP reporter activity,RAW-Dual [2]; [6],0.994
same,NF-kB SEAP reporter activity,RAW-Dual [2]; [7],1.05
same,NF-kB SEAP reporter activity,RAW-Dual [2]; [8],1.21
CCC(CC)(NC(=O)C(C)C)C(=O)NC(CCCNC(=N)N)C(=O)NC1(C(=O)NC(c2ccc(F)cc2)c2ccc(F)cc2)CCCC1 (stereo not given),NF-kB SEAP reporter activity,RAW-Dual [1]; [4],1.08
same,NF-kB SEAP reporter activity,RAW-Dual [1]; [5],0.867
CCC(CC)(NC(=O)C(C)C)C(=O)NC(CCCNC(=N)N)C(=O)NC1(C(=O)NC(c2ccc(F)cc2)c2ccc(F)cc2)CCCC1 (stereo not given) (library stock concentration (final ~1000-fold dilution): 10 mM),NF-kB SEAP reporter activity,RAW-Dual [2]; agonist: LPS (TLR4) 0.1 ug/mL,0.847
same,NF-kB SEAP reporter activity,RAW-Dual [2]; [6],0.788
same,NF-kB SEAP reporter activity,RAW-Dual [2]; [7],0.957
same,NF-kB SEAP reporter activity,RAW-Dual [2]; [8],0.971
Cc1cccc(-c2nc(C(C)(C)C)[nH]c2-c2ccc3nccnc3c2)n1 (library stock concentration (final ~1000-fold dilution): 10 mM),NF-kB SEAP reporter activity,RAW-Dual [2]; agonist: LPS (TLR4) 0.1 ug/mL,1.69
same,NF-kB SEAP reporter activity,RAW-Dual [2]; [6],1.15
same,NF-kB SEAP reporter activity,RAW-Dual [2]; [7],1.05
same,NF-kB SEAP reporter activity,RAW-Dual [2]; [8],1.12
Cc1cccc(-c2nc(C(C)(C)C)[nH]c2-c2ccc3nccnc3c2)n1,NF-kB SEAP reporter activity,RAW-Dual [1]; [4],1.09
same,NF-kB SEAP reporter activity,RAW-Dual [1]; [5],1.26
Cc1ccc(S(=O)(=O)O)cc1.Cn1cc(-c2ccc(F)c(C(F)(F)F)c2)nc1C1CCN(c2ncnc3[nH]ncc23)CC1 (library stock concentration (final ~1000-fold dilution): 10 mM),NF-kB SEAP reporter activity,RAW-Dual [2]; agonist: LPS (TLR4) 0.1 ug/mL,0.957
same,NF-kB SEAP reporter activity,RAW-Dual [2]; [6],1.08
same,NF-kB SEAP reporter activity,RAW-Dual [2]; [7],0.832
same,NF-kB SEAP reporter activity,RAW-Dual [2]; [8],0.996
Cc1ccc(S(=O)(=O)O)cc1.Cn1cc(-c2ccc(F)c(C(F)(F)F)c2)nc1C1CCN(c2ncnc3[nH]ncc23)CC1,NF-kB SEAP reporter activity,RAW-Dual [1]; [4],0.152
same,NF-kB SEAP reporter activity,RAW-Dual [1]; [5],0.981
COC(=O)NC(C(=O)NC(Cc1ccccc1)C(O)CN(Cc1ccc(-c2ccccn2)cc1)NC(=O)C(NC(=O)OC)C(C)(C)C)C(C)(C)C.O=S(=O)(O)O (stereo not given),NF-kB SEAP reporter activity,RAW-Dual [1]; [4],2.01
same,NF-kB SEAP reporter activity,RAW-Dual [1]; [5],1.56
COC(=O)NC(C(=O)NC(Cc1ccccc1)C(O)CN(Cc1ccc(-c2ccccn2)cc1)NC(=O)C(NC(=O)OC)C(C)(C)C)C(C)(C)C.O=S(=O)(O)O (stereo not given) (library stock concentration (final ~1000-fold dilution): 10 mM),NF-kB SEAP reporter activity,RAW-Dual [2]; agonist: LPS (TLR4) 0.1 ug/mL,1.54
same,NF-kB SEAP reporter activity,RAW-Dual [2]; [6],2.67
same,NF-kB SEAP reporter activity,RAW-Dual [2]; [7],1.47
same,NF-kB SEAP reporter activity,RAW-Dual [2]; [8],1.68
O=C(NOCC(O)CO)c1cc(Br)c(F)c(F)c1Nc1ccc(I)cc1F (stereo not given) (library stock concentration (final ~1000-fold dilution): 10 mM),NF-kB SEAP reporter activity,RAW-Dual [2]; agonist: LPS (TLR4) 0.1 ug/mL,0.197
same,NF-kB SEAP reporter activity,RAW-Dual [2]; [6],0.265
same,NF-kB SEAP reporter activity,RAW-Dual [2]; [7],0.08
same,NF-kB SEAP reporter activity,RAW-Dual [2]; [8],0.123
O=C(NOCC(O)CO)c1cc(Br)c(F)c(F)c1Nc1ccc(I)cc1F (stereo not given),NF-kB SEAP reporter activity,RAW-Dual [1]; [4],0.202
same,NF-kB SEAP reporter activity,RAW-Dual [1]; [5],0.229
O=C(O)COc1ccc(Br)cc1/C=C1\SC(=S)N(Cc2cccnc2)C1=O (library stock concentration (final ~1000-fold dilution): 10 mM),NF-kB SEAP reporter activity,RAW-Dual [2]; agonist: LPS (TLR4) 0.1 ug/mL,1.07
same,NF-kB SEAP reporter activity,RAW-Dual [2]; [6],0.802
same,NF-kB SEAP reporter activity,RAW-Dual [2]; [7],0.779
same,NF-kB SEAP reporter activity,RAW-Dual [2]; [8],0.974
O=C(O)COc1ccc(Br)cc1/C=C1\SC(=S)N(Cc2cccnc2)C1=O,NF-kB SEAP reporter activity,RAW-Dual [1]; [4],0.936
same,NF-kB SEAP reporter activity,RAW-Dual [1]; [5],1.05
CN(C)CC(c1ccc(O)cc1)C1(O)CCCCC1 (stereo not given),NF-kB SEAP reporter activity,RAW-Dual [1]; [4],0.914
same,NF-kB SEAP reporter activity,RAW-Dual [1]; [5],0.997
CN(C)CC(c1ccc(O)cc1)C1(O)CCCCC1 (stereo not given) (library stock concentration (final ~1000-fold dilution): 10 mM),NF-kB SEAP reporter activity,RAW-Dual [2]; agonist: LPS (TLR4) 0.1 ug/mL,0.8
same,NF-kB SEAP reporter activity,RAW-Dual [2]; [6],0.892
same,NF-kB SEAP reporter activity,RAW-Dual [2]; [7],0.986
same,NF-kB SEAP reporter activity,RAW-Dual [2]; [8],1.1
O=C(O)CCC(=O)OCC(NC(=O)C(Cl)Cl)C(O)c1ccc([N+](=O)[O-])cc1 (stereo not given) (library stock concentration (final ~1000-fold dilution): 10 mM),NF-kB SEAP reporter activity,RAW-Dual [2]; agonist: LPS (TLR4) 0.1 ug/mL,1.32
same,NF-kB SEAP reporter activity,RAW-Dual [2]; [6],0.936
same,NF-kB SEAP reporter activity,RAW-Dual [2]; [7],1.24
same,NF-kB SEAP reporter activity,RAW-Dual [2]; [8],1.14
O=C(O)CCC(=O)OCC(NC(=O)C(Cl)Cl)C(O)c1ccc([N+](=O)[O-])cc1 (stereo not given),NF-kB SEAP reporter activity,RAW-Dual [1]; [5],1.03
OC1C=C2CCN3Cc4cc5c(cc4C(C1O)C23)OCO5 (stereo not given),NF-kB SEAP reporter activity,RAW-Dual [1]; [9],2.07
same,NF-kB SEAP reporter activity,RAW-Dual [1]; [10],1.61
OC1C=C2CCN3Cc4cc5c(cc4C(C1O)C23)OCO5 (stereo not given) (library stock concentration (final ~1000-fold dilution): 10 mM),NF-kB SEAP reporter activity,RAW-Dual [3]; agonist: LPS (TLR4) 0.1 ug/mL,1.54
same,NF-kB SEAP reporter activity,RAW-Dual [3]; [6],1.05
same,NF-kB SEAP reporter activity,RAW-Dual [3]; [7],0.33
same,NF-kB SEAP reporter activity,RAW-Dual [3]; [8],0.552
CCCCC(C=O)NC(=O)C(CC(C)C)NC(=O)OCc1ccccc1 (stereo not given),NF-kB SEAP reporter activity,RAW-Dual [1]; [4],0.529
same,NF-kB SEAP reporter activity,RAW-Dual [1]; [5],1.21
CCCCC(C=O)NC(=O)C(CC(C)C)NC(=O)OCc1ccccc1 (stereo not given) (library stock concentration (final ~1000-fold dilution): 10 mM),NF-kB SEAP reporter activity,RAW-Dual [2]; agonist: LPS (TLR4) 0.1 ug/mL,1.06
same,NF-kB SEAP reporter activity,RAW-Dual [2]; [6],1.23
same,NF-kB SEAP reporter activity,RAW-Dual [2]; [7],1.06
same,NF-kB SEAP reporter activity,RAW-Dual [2]; [8],1.26
